# Test results: publication PMC9911399, “Two distinct binding modes provide the RNA-binding protein RbFox with extraordinary sequence specificity”
# Residue numbers refer to the chain shown, from its start. This is one part of the list.
# T1: RBFOX1 RRM (Homo sapiens, UniProt Q9NWB1 109-208)
# T1 sequence: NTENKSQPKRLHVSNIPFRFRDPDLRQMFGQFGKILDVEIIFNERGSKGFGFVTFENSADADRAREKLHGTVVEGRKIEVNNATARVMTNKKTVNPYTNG
# B1: CUGUAAC (DNA:RNA)
# RNA: GGGAGACCGGAAUUCAGAUUGUCCCUGUAACUUAAAUCCCGUCGUAGCCACCA
# DNA 1: CAATCTGAATTCCGGTCTCCC
# DNA 2: TGGTGGCTACGACGGGATT
# B2: CUGCCCA (DNA:RNA)
# RNA: B1 RNA with U28C, A29C, A30C, C31A
# DNA 1: CAATCTGAATTCCGGTCTCCC
# DNA 2: TGGTGGCTACGACGGGATT
# B3: CGUGUAU (DNA:RNA)
# RNA: B1 RNA with U26G, G27U, U28G, A29U, C31U
# DNA 1: CAATCTGAATTCCGGTCTCCC
# DNA 2: TGGTGGCTACGACGGGATT
# B4: ACUACGC (DNA:RNA)
# RNA: B1 RNA with C25A, U26C, G27U, U28A, A29C, A30G
# DNA 1: CAATCTGAATTCCGGTCTCCC
# DNA 2: TGGTGGCTACGACGGGATT
# B5: GAAUCAG (DNA:RNA)
# RNA: B1 RNA with C25G, U26A, G27A, A29C, C31G
# DNA 1: CAATCTGAATTCCGGTCTCCC
# DNA 2: TGGTGGCTACGACGGGATT
# B6: CAGGGGA (DNA:RNA)
# RNA: B1 RNA with U26A, U28G, A29G, A30G, C31A
# DNA 1: CAATCTGAATTCCGGTCTCCC
# DNA 2: TGGTGGCTACGACGGGATT
# B7: UCAUGCG (DNA:RNA)
# RNA: B1 RNA with C25U, U26C, G27A, A29G, A30C, C31G
# DNA 1: CAATCTGAATTCCGGTCTCCC
# DNA 2: TGGTGGCTACGACGGGATT
# B8: AUCCAGU (DNA:RNA)
# RNA: B1 RNA with C25A, G27C, U28C, A30G, C31U
# DNA 1: CAATCTGAATTCCGGTCTCCC
# DNA 2: TGGTGGCTACGACGGGATT
# B9: AGUGGAA (DNA:RNA)
# RNA: B1 RNA with C25A, U26G, G27U, U28G, A29G, C31A
# DNA 1: CAATCTGAATTCCGGTCTCCC
# DNA 2: TGGTGGCTACGACGGGATT
# B10: AUUCACG (DNA:RNA)
# RNA: B1 RNA with C25A, G27U, U28C, A30C, C31G
# DNA 1: CAATCTGAATTCCGGTCTCCC
# DNA 2: TGGTGGCTACGACGGGATT
# B11: CUAAGAG (DNA:RNA)
# RNA: B1 RNA with G27A, U28A, A29G, C31G
# DNA 1: CAATCTGAATTCCGGTCTCCC
# DNA 2: TGGTGGCTACGACGGGATT
# B12: UGAAACC (DNA:RNA)
# RNA: B1 RNA with C25U, U26G, G27A, U28A, A30C
# DNA 1: CAATCTGAATTCCGGTCTCCC
# DNA 2: TGGTGGCTACGACGGGATT
# B13: UGUGUUA (DNA:RNA)
# RNA: GGGAGACCGGAAUUCAGAUUGUCCUGUGUUAUUAAAUCCCGUCGUAGCCACCA
# DNA 1: CAATCTGAATTCCGGTCTCCC
# DNA 2: TGGTGGCTACGACGGGATT
# B14: UCACACG (DNA:RNA)
# RNA: B1 RNA with C25U, U26C, G27A, U28C, A30C, C31G
# DNA 1: CAATCTGAATTCCGGTCTCCC
# DNA 2: TGGTGGCTACGACGGGATT
# B15: CUCUCUU (DNA:RNA)
# RNA: B1 RNA with G27C, A29C, A30U, C31U
# DNA 1: CAATCTGAATTCCGGTCTCCC
# DNA 2: TGGTGGCTACGACGGGATT
# B16: AUAUCUC (DNA:RNA)
# RNA: B1 RNA with C25A, G27A, A29C, A30U
# DNA 1: CAATCTGAATTCCGGTCTCCC
# DNA 2: TGGTGGCTACGACGGGATT
# B17: CGUUUAA (DNA:RNA)
# RNA: B13 RNA with U25C, G28U, U30A
# DNA 1: CAATCTGAATTCCGGTCTCCC
# DNA 2: TGGTGGCTACGACGGGATT
# B18: UUGAUUG (DNA:RNA)
# RNA: B13 RNA with G26U, U27G, G28A, A31G
# DNA 1: CAATCTGAATTCCGGTCTCCC
# DNA 2: TGGTGGCTACGACGGGATT
# B19: UGACCAA (DNA:RNA)
# RNA: B13 RNA with U27A, G28C, U29C, U30A
# DNA 1: CAATCTGAATTCCGGTCTCCC
# DNA 2: TGGTGGCTACGACGGGATT
# B20: AUGUGAC (DNA:RNA)
# RNA: B1 RNA with C25A, A29G
# DNA 1: CAATCTGAATTCCGGTCTCCC
# DNA 2: TGGTGGCTACGACGGGATT
# B21: AUGUCCU (DNA:RNA)
# RNA: B1 RNA with C25A, A29C, A30C, C31U
# DNA 1: CAATCTGAATTCCGGTCTCCC
# DNA 2: TGGTGGCTACGACGGGATT
# B22: CCACUGU (DNA:RNA)
# RNA: B1 RNA with U26C, G27A, U28C, A29U, A30G, C31U
# DNA 1: CAATCTGAATTCCGGTCTCCC
# DNA 2: TGGTGGCTACGACGGGATT
# B23: UACUCUC (DNA:RNA)
# RNA: B1 RNA with C25U, U26A, G27C, A29C, A30U
# DNA 1: CAATCTGAATTCCGGTCTCCC
# DNA 2: TGGTGGCTACGACGGGATT
# B24: UGGCUUU (DNA:RNA)
# RNA: B13 RNA with U27G, G28C, A31U
# DNA 1: CAATCTGAATTCCGGTCTCCC
# DNA 2: TGGTGGCTACGACGGGATT
# B25: CCACACU (DNA:RNA)
# RNA: B1 RNA with U26C, G27A, U28C, A30C, C31U
# DNA 1: CAATCTGAATTCCGGTCTCCC
# DNA 2: TGGTGGCTACGACGGGATT
# B26: UCCUCGA (DNA:RNA)
# RNA: B13 RNA with G26C, U27C, G28U, U29C, U30G
# DNA 1: CAATCTGAATTCCGGTCTCCC
# DNA 2: TGGTGGCTACGACGGGATT
# B27: UUAUAAG (DNA:RNA)
# RNA: B1 RNA with C25U, G27A, C31G
# DNA 1: CAATCTGAATTCCGGTCTCCC
# DNA 2: TGGTGGCTACGACGGGATT
# B28: GGGAACC (DNA:RNA)
# RNA: B1 RNA with C25G, U26G, U28A, A30C
# DNA 1: CAATCTGAATTCCGGTCTCCC
# DNA 2: TGGTGGCTACGACGGGATT
# B29: UUCAAGC (DNA:RNA)
# RNA: B1 RNA with C25U, G27C, U28A, A30G
# DNA 1: CAATCTGAATTCCGGTCTCCC
# DNA 2: TGGTGGCTACGACGGGATT
# B30: UCAGCUA (DNA:RNA)
# RNA: B13 RNA with G26C, U27A, U29C
# DNA 1: CAATCTGAATTCCGGTCTCCC
# DNA 2: TGGTGGCTACGACGGGATT
# B31: AGAAGUA (DNA:RNA)
# RNA: B13 RNA with U25A, U27A, G28A, U29G
# DNA 1: CAATCTGAATTCCGGTCTCCC
# DNA 2: TGGTGGCTACGACGGGATT
# Target: T1, RBFOX1 RRM
# Test: EMSA; HiTS-Eq, 1 nM pool, 10 min; buffer printed only for the single-RNA assays: 10 mM Tris pH 7.5, 150 mM NaCl, 3.4 mM EDTA, 0.001% NP-40, 30 C
# Conditions: tags: His6 N-terminal (pET28a); label: 5' 32P
# How it was run: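 These values rest on relative association constants, computed from read-count changes of each RNA species versus the control reaction and normalised to the cognate motif. Reads came from free RNA recovered by 8% native PAGE after purified RbFox RRM (wild type or mutant) at increasing concentrations was equilibrated for 10 min in 50 µL with 1 nM of a 5′-radiolabelled pool with 7 randomized nucleotides and DNA-annealed flanks.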
row,Binder,binding signal
1,B1,0.0121 KA relative to UGCAUGU
2,B2,0.00355 KA relative to UGCAUGU
3,B3,0.00724 KA relative to UGCAUGU
4,B4,0.00303 KA relative to UGCAUGU
5,B5,0.00941 KA relative to UGCAUGU
6,B6,0.00636 KA relative to UGCAUGU
7,B7,0.0151 KA relative to UGCAUGU
8,B8,0.000423 KA relative to UGCAUGU
9,B9,0.00598 KA relative to UGCAUGU
10,B10,0.00342 KA relative to UGCAUGU
11,B11,0.00974 KA relative to UGCAUGU
12,B12,0.00628 KA relative to UGCAUGU
13,B13,0.0157 KA relative to UGCAUGU
14,B14,0.00339 KA relative to UGCAUGU
15,B15,0.00585 KA relative to UGCAUGU
16,B16,0.00182 KA relative to UGCAUGU

row,Binder,binding signal
1,B17,0.006 KA relative to UGCAUGU
2,B18,0.0356 KA relative to UGCAUGU
3,B19,0.00452 KA relative to UGCAUGU
4,B20,0.00423 KA relative to UGCAUGU
5,B21,0.00241 KA relative to UGCAUGU
6,B22,0.00469 KA relative to UGCAUGU
7,B23,0.00468 KA relative to UGCAUGU
8,B24,0.0207 KA relative to UGCAUGU
9,B25,0.00434 KA relative to UGCAUGU
10,B26,0.00976 KA relative to UGCAUGU
11,B27,0.00929 KA relative to UGCAUGU
12,B28,0.0108 KA relative to UGCAUGU
13,B29,0.00716 KA relative to UGCAUGU
14,B30,0.00618 KA relative to UGCAUGU
15,B31,0.00622 KA relative to UGCAUGU
